According to publication PMC7819943, “Rice protein-binding microarrays: a tool to detect cis-acting elements near promoter regions in rice”:
The list shows a part of the results.

Biological target: T1, OsWOX13 (Oryza sativa, UniProt Q5QMM3 1-267)
T1 sequence: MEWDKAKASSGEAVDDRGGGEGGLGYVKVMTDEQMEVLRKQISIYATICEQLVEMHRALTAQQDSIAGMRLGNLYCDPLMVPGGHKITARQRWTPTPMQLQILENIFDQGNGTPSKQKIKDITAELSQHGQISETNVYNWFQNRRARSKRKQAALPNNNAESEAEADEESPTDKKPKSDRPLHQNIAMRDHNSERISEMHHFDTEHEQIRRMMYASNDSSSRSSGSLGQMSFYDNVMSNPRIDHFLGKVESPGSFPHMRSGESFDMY
Experiment: protein-binding microarray (RPBM); PBS, 2% BSA, 51.3 ng/ul salmon testes DNA, 50 uM zinc acetate, 200 nM TF, 25 C, 1 h; high values mean tight binding
Conditions: protein: recombinant; tags: N-terminal polyhistidine and DsRed monomer fusion (pET32a); label: CyDye5-dUTP incorporated in the synthesized complementary strand; 3' TTTTT single-stranded linker to array surface; dsDNA, one strand shown
In short: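 Transcription factors were made in E. coli BL21-CodonPlus as N-terminal fusions to a polyhistidine tag and DsRed, then purified on Ni–NTA. After primer extension with Cy5-dUTP and blocking with 2% BSA, a custom Agilent array was exposed for 1 h at 25 °C to 200 nM protein in PBS, 2% BSA, salmon testes DNA and 50 µM zinc acetate. Washed arrays were scanned on an Axon 4000B, and the binding signal is per-feature fluorescence intensity in arbitrary units.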

Row | Sequence | binding signal
1 | CCAATTTAATTTAAGAAATTGTAACTGCCGACCGGGGCGGCGGAGTCACCTAGTGCAG | 16200 fluorescence intensity (a.u.)
2 | TTTTGACGGAATAGATTTAAGAGACAGTTCTCGATCGAGTCGGAGTCACCTAGTGCAG | 15800 fluorescence intensity (a.u.)
3 | TTCGATAATTGCTCAAATACCCTTATTAGGTTTGCATTAACGGAGTCACCTAGTGCAG | 17600 fluorescence intensity (a.u.)
4 | GCCTAAATCTAATTTACTTCTACTCTTTGAAACGGAAAAGCGGAGTCACCTAGTGCAG | 5880 fluorescence intensity (a.u.)
5 | AATAATTAGTGCAGAAAATTTTGACATAAATTTTGAAAATCGGAGTCACCTAGTGCAG | 24700 fluorescence intensity (a.u.)
6 | GTGGAATAATTTGTAATTATGATTGTCATACTATACTGCTCGGAGTCACCTAGTGCAG | 47500 fluorescence intensity (a.u.)
7 | AAGTAAAATAATTTATTCAAATACTAGGTCATTTATAATGCGGAGTCACCTAGTGCAG | 3860 fluorescence intensity (a.u.)
8 | TACACAGATTTCATGTAAATTGCAAGACGAATCTTTTAAGCGGAGTCACCTAGTGCAG | 6670 fluorescence intensity (a.u.)
9 | CTGAATAGTTGAATGATTTGTTACGATTATTTTGATGGTACGGAGTCACCTAGTGCAG | 16700 fluorescence intensity (a.u.)
10 | ACTTCCAGTAATTCCATTAAATTGTGATCTATCTAATGGCCGGAGTCACCTAGTGCAG | 4670 fluorescence intensity (a.u.)
11 | CATGAGTAAATTGTATTATTGCATCCTCACGTGCATGTCTCGGAGTCACCTAGTGCAG | 5540 fluorescence intensity (a.u.)
12 | TTTCATTCGATGGATTGATTCATCGCCCAAGCTAACCATGCGGAGTCACCTAGTGCAG | 4590 fluorescence intensity (a.u.)
13 | ATCGTAGTGATTAAGTTTCAATTATCTGAACAAACCAACACGGAGTCACCTAGTGCAG | 14800 fluorescence intensity (a.u.)
14 | ACTAAATTTAGGATTTGGAGCTCTACCAAACAGGCCAGGCCGGAGTCACCTAGTGCAG | 10400 fluorescence intensity (a.u.)
15 | ATTCCTCATTAATTAGCCAAATCACCGAGGGGCTCCGCACCGGAGTCACCTAGTGCAG | 15900 fluorescence intensity (a.u.)
16 | CCTGATAGACTTCTCCACGTTCTTCTCCTCCCTCTGCACACGGAGTCACCTAGTGCAG | 39100 fluorescence intensity (a.u.)
17 | CGATGATTGGGCAAAGTCTTGGCTCAGTTTATCTTGCATGCGGAGTCACCTAGTGCAG | 49200 fluorescence intensity (a.u.)
18 | ACCCCACTAATTTTATTATTGTGCATATATAATATAATATCGGAGTCACCTAGTGCAG | 4370 fluorescence intensity (a.u.)
19 | ACCCCTTAAATAAATTAAACAATCTAGCTTGGACAACATTCGGAGTCACCTAGTGCAG | 13000 fluorescence intensity (a.u.)
20 | TAGAATTGAACATAACCGAGTATTATAAATCTGAATATGGCGGAGTCACCTAGTGCAG | 6660 fluorescence intensity (a.u.)
21 | CCAGGATAGACAACATGTCTAACTTACGATTACTCTGCAACGGAGTCACCTAGTGCAG | 3800 fluorescence intensity (a.u.)
22 | AATTTGAAATTTCAAACTTAATTTTAACATTGATTTTGAGCGGAGTCACCTAGTGCAG | 6660 fluorescence intensity (a.u.)
23 | TGTATGCGATTTGATTAAACTTTTAAAATGTTGATTATTACGGAGTCACCTAGTGCAG | 4680 fluorescence intensity (a.u.)
24 | AGAAACCTAATTAGTGGACCTAAGCACACTTCATGATCATCGGAGTCACCTAGTGCAG | 9380 fluorescence intensity (a.u.)
25 | AAATTTAAATTGTCTAGAAGAGCTTTTGTCTATTTTGGGGCGGAGTCACCTAGTGCAG | 5440 fluorescence intensity (a.u.)
26 | TTGATCAGTAATTTGTAATAGAGGTAATTTGCTGAAATTCCGGAGTCACCTAGTGCAG | 16700 fluorescence intensity (a.u.)
27 | TTAATTATCTCTAGGGGTGAAATTATTTGACAAGGCGACACGGAGTCACCTAGTGCAG | 3580 fluorescence intensity (a.u.)

Row | Sequence | binding signal
28 | ATAAATTAAAATTGCACATTGCATAGCCTTATCAATGTGTCGGAGTCACCTAGTGCAG | 26900 fluorescence intensity (a.u.)
29 | CTTACATGTTAATTAACTTTAAAAGTTAGTAGACATCAACCGGAGTCACCTAGTGCAG | 14900 fluorescence intensity (a.u.)
30 | GATGTTGGATCTCGACTGTAATTGATCAGTTTCATGAAGACGGAGTCACCTAGTGCAG | 8240 fluorescence intensity (a.u.)
31 | TAAGAGTTAATCTTGATTGGTTGAATGTAGTGTATTTAATCGGAGTCACCTAGTGCAG | 13400 fluorescence intensity (a.u.)
32 | CACCACGCGTCAGTTTATCAATCTGCATGTTCGCCCTTCTCGGAGTCACCTAGTGCAG | 4990 fluorescence intensity (a.u.)
33 | ATTGAGCAAATTTGCACTTATTTGTGTTCAGATATATCGTCGGAGTCACCTAGTGCAG | 4790 fluorescence intensity (a.u.)
34 | ACGTCAAATCAATCTCTGCTAATAATGCAAGGCACCACTGCGGAGTCACCTAGTGCAG | 15000 fluorescence intensity (a.u.)
35 | GGTGTAATAATGATGTGATTACGTCGCATCTAACTTGTGACGGAGTCACCTAGTGCAG | 16100 fluorescence intensity (a.u.)
36 | TAAATATGCCTATGATTGTTTCTTCAAACCCAGACTTCTGCGGAGTCACCTAGTGCAG | 7060 fluorescence intensity (a.u.)
37 | CGGCATCCAAATTGGCAACAAATAGTTCGTGTGACGTTAACGGAGTCACCTAGTGCAG | 3550 fluorescence intensity (a.u.)
38 | TGTGATAGGGAAATGCTACGGGACGGTATCCTGTTCGAACCGGAGTCACCTAGTGCAG | 5250 fluorescence intensity (a.u.)
39 | TTTTATGATTGGTGGATACGTAGAGTGGATTGTGAGGTTACGGAGTCACCTAGTGCAG | 36100 fluorescence intensity (a.u.)
40 | ATCCGATGTTTGTTAATTTGATGCGGTTTAGCTGGCAGCTCGGAGTCACCTAGTGCAG | 4080 fluorescence intensity (a.u.)
41 | AACAAAACAAATTACAGATTCCGCTTGTAAACTGCGAGACCGGAGTCACCTAGTGCAG | 5270 fluorescence intensity (a.u.)
42 | ATTCAATTACTCTGGATTTTAGTTATTCTCATGAAACTTCCGGAGTCACCTAGTGCAG | 7820 fluorescence intensity (a.u.)
43 | TTTCATTGTAATATAATTATGTAAGATCTTGTTCTAAAGACGGAGTCACCTAGTGCAG | 4690 fluorescence intensity (a.u.)
44 | AGATATTGATTATGTTTAGCCATGTGGCTCCTTAAATGGGCGGAGTCACCTAGTGCAG | 32700 fluorescence intensity (a.u.)
45 | ATTCGTCTCGCAAATTAGCCGTAATATGTACAATTAGCTTCGGAGTCACCTAGTGCAG | 3330 fluorescence intensity (a.u.)
46 | AAGTAATCAAATAGGATCCTAGATCTAAACTGCTTACTTGCGGAGTCACCTAGTGCAG | 3440 fluorescence intensity (a.u.)
47 | CGTGTGATTCAAACCGATCCCAATCACCAAACTGCGCCGCCGGAGTCACCTAGTGCAG | 4140 fluorescence intensity (a.u.)
48 | TTTGATGACCGACAGGCAAGTCTCCTTGATTTCCATCGAGCGGAGTCACCTAGTGCAG | 5200 fluorescence intensity (a.u.)
49 | TGCATGATTATGTGTTGCAAATGCTCCTTACTCCCGTAGCCGGAGTCACCTAGTGCAG | 20900 fluorescence intensity (a.u.)
50 | GCTGATTGCCATTGATTCATATTCATTGTGTGCCATCTGGCGGAGTCACCTAGTGCAG | 58800 fluorescence intensity (a.u.)
51 | ACCCAGCCAATTGACAATTCGATGGTGACTAATGGTGAACCGGAGTCACCTAGTGCAG | 10400 fluorescence intensity (a.u.)
52 | CATGGCATTAATTGTTACCCCTCCTGAGTCCTGATCATGGCGGAGTCACCTAGTGCAG | 10600 fluorescence intensity (a.u.)
53 | AAGCGTTAATATTGATTGTGATTAGCCGCCGTGGGCAACACGGAGTCACCTAGTGCAG | 36300 fluorescence intensity (a.u.)
54 | AGACGGTGGACATGAAATTGATGAGTAAAGAACCTAATTGCGGAGTCACCTAGTGCAG | 3780 fluorescence intensity (a.u.)
